Test results taken from patent publication US20210363269A1 (ALX ONCOLOGY, published 2021).

Tests used:
[1] = biological target: T1, human SIRP-α v2 D1 domain (human); test: SPR
T1 construct: also called human v2
Summary of the method: (§1)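 Pre-filtered culture media supplied the scFv-Fc antibody clones, which were captured by anti-human IgG Fc amine-coupled (about 4000 RU) to a GLC chip on a ProteOn XPR36. SIRP analytes were flowed in PBS pH 7.4 with 0.01% Tween-20 at 25° C. Interspot and buffer-blank responses were subtracted from the data, which were then fitted to a 1:1 Langmuir model. Dissociation rate constants (koff) were derived from this fitting.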

[2] = biological target: T2, mouse 129 SIRP-α D1 domain (mouse (129 strain), UniProt P97797 32-150); test: SPR
T2 construct: also called m129
T2 chain: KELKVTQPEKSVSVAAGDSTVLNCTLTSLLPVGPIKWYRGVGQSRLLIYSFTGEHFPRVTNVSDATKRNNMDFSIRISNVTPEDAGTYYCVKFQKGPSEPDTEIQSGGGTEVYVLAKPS
Summary of the method: as §1

[3] = biological target: T3, NOD mouse SIRP-α D1 domain (mouse (NOD strain)); test: SPR
T3 chain: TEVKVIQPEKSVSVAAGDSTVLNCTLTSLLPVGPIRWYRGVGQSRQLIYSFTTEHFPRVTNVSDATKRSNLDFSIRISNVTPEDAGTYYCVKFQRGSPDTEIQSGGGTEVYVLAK
Summary of the method: as §1

[4] = biological target: T4, C57BL/6 mouse SIRP-α D1 domain (mouse (C57BL/6 strain), UniProt P97797 32-148); test: SPR
T4 sequence: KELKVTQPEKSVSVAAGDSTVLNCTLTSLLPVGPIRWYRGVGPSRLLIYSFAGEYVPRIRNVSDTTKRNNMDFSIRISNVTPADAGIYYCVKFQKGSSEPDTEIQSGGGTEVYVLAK
Summary of the method: as §1

[5] = biological target: T5, high affinity SIRP-α D1 variant CV1-3; test: SPR, Langmuir fit
T5 chain: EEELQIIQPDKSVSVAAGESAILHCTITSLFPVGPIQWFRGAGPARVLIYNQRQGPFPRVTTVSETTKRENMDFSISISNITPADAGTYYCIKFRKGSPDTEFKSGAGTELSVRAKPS
Summary of the method: as §1

human SIRPγ isoform 1 [6] = biological target: T6, human SIRPγ isoform 1 (human, UniProt Q9P1W8 29-147); test: SPR, Langmuir fit
T6 construct: also called SIRPg; sirpg
Summary of the method: as §1

[7] = biological target: T7, human SIRP-α v1 D1 domain (human, UniProt P78324 31-149); test: SPR, Langmuir fit
T7 construct: also called human v1
Summary of the method: as §1

[8] = biological target: T8, cynomolgus SIRP-α D1 domain (cyno1) (cynomolgus monkey, UniProt Q5TFQ8 30-148 (human entry), limits assumed); test: SPR, Langmuir fit
T8 chain: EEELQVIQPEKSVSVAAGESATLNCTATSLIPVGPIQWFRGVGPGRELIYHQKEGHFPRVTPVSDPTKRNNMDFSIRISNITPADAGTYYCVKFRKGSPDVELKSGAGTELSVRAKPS
Summary of the method: as §1

[9] = biological target: T9, cynomolgus SIRP-α D1 domain (cyno2) (cynomolgus monkey, UniProt Q5TFQ8 30-148 (human entry), limits assumed); test: SPR, Langmuir fit
T9 chain: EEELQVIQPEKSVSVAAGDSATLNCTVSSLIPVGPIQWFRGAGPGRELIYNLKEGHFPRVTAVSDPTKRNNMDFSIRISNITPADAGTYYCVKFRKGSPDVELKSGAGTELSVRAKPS
Summary of the method: as §1

[10] = biological target: T10, human SIRP-α v2 D1 domain (human); test: SPR, captured scFv-Fc
T10 construct: also called human v2; human α v2
Summary of the method: as §1

human SIRPβ isoform 1 [11] = biological target: T11, human SIRPβ isoform 1 (human, UniProt O00241 30-148); test: SPR, captured scFv-Fc
T11 construct: also called sirpb1; Sirpb1
Summary of the method: as §1

[12] = biological target: T12, human SIRP-α v1 D1 domain (human, UniProt P78324 31-149); test: SPR, captured scFv-Fc, 100 nM analyte
T12 construct: also called human v1; human α v1

human SIRPγ isoform 1 [13] = biological target: T13, human SIRPγ isoform 1 (human, UniProt Q9P1W8 29-147); test: SPR, captured scFv-Fc, 100 nM analyte
T13 construct: also called sirpg; sirp-g

[14] = biological target: T14, high affinity SIRP-α D1 variant CV1-3 (human); test: SPR, captured scFv-Fc, 100 nM analyte
T14 chain: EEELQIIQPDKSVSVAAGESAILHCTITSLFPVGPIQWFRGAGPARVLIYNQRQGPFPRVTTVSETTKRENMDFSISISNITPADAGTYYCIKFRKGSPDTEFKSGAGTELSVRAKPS

[15] = biological target: T15, cynomolgus SIRP-α D1 domain (SEQ ID NO:11) (cynomolgus, UniProt Q5TFQ8 30-148 (human entry), limits assumed); test: SPR, captured scFv-Fc, 100 nM analyte
T15 construct: also called cyno1
T15 chain: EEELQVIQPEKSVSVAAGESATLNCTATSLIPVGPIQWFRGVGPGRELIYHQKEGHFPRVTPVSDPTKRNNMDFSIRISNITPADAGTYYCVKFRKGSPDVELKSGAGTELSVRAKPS

[16] = biological target: T16, cynomolgus SIRP-α D1 domain (SEQ ID NO:12) (cynomolgus, UniProt Q5TFQ8 30-148 (human entry), limits assumed); test: SPR, captured scFv-Fc, 100 nM analyte
T16 construct: also called cyno2; Cyno2
T16 chain: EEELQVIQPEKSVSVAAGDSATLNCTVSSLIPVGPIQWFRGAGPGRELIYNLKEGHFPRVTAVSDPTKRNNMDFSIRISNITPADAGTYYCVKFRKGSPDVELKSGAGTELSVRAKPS

[17] = biological target: T17, mouse 129 SIRP-α D1 domain (mouse (129 strain), UniProt P97797 32-150); test: SPR, captured scFv-Fc, 100 nM analyte
T17 construct: also called m129
T17 chain: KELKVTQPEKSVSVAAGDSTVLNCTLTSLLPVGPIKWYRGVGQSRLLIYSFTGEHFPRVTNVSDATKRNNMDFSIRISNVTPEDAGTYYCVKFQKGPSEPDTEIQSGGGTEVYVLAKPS

[18] = biological target: T18, NOD mouse SIRP-α D1 domain (mouse (NOD strain)); test: SPR, captured scFv-Fc, 100 nM analyte
T18 chain: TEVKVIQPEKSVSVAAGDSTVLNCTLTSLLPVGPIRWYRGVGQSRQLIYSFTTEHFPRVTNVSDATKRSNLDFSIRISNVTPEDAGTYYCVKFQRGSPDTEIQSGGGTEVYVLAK

[19] = biological target: T19, C57BL/6 mouse SIRP-α D1 domain (mouse (C57BL/6 strain), UniProt P97797 32-148); test: SPR, captured scFv-Fc, 100 nM analyte
T19 sequence: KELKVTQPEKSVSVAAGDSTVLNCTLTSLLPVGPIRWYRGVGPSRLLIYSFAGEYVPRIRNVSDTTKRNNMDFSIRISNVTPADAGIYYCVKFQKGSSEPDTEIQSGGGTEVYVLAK

[20] = biological target: T17, mouse 129 SIRP-α D1 domain; test: SPR, captured scFv-Fc
Summary of the method: as §1

[21] = biological target: T10, human SIRP-α v2 D1 domain; test: SPR, captured scFv-Fc, 100 nM analyte
human SIRPβ isoform 1 [22] = biological target: T11, human SIRPβ isoform 1; test: SPR, captured scFv-Fc, 100 nM analyte
[23] = biological target: T18, NOD mouse SIRP-α D1 domain; test: SPR, captured scFv-Fc, 100 nM analyte; LB = very low binding
Description: (§2) Binding of the antibody clones to various SIRP proteins was determined using surface plasmon resonance (SPR) detection on a ProteOn XPR36 instrument (Bio-Rad, Hercules, Calif.) using phosphate buffered saline (PBS, pH 7.4) supplemented with 0.01% Tween-20 (PBST) as running buffer. The pre-filtered media containing the secreted antibodies was used directly for the assay. First, anti-Human IgG Fc (BR-1008-39, GE Healthcare) was amine-coupled onto a GLC sensor chip to generate the capture surfaces for the antibodies. About 4000 RU per flow cell of immobilized anti-human IgG Fc is achieved. Each clone is screened using the same method as follows.
(§3) (1) ‥5-10 uL of pre-filtered media in 10 mM sodium acetate buffer (pH4.5) was injected for 2 mins at 30 ul/min;
(§4) The koff rates of binding of each clone to each SIRP analyte were determined using SPR (Table C). The SPR screening conditions have been described herein, and the Koff values were determined using Langmuir kinetic fittings. The CD47 blocking properties (block, non-block, kick-off) are described in the last column of the Table C. Each antibody is identified according to its corresponding SEQ ID NO. SIRP analyte sequences are as follows: CV1-3, SEQ ID NO:18; v1, SEQ ID NO:5; v2, SEQ ID NO:6; cyno1, SEQ ID NO:11; cyno2, SEQ ID NO:12; m129, SEQ ID NO:7; NOD, SEQ ID NO: 8; BL6, SEQ ID NO:9; sirpb1, SEQ ID NO:13; sirpg, SEQ ID NO:15.

[24] = biological target: T19, C57BL/6 mouse SIRP-α D1 domain; test: as above
Description: as §2, §3, §4

human SIRPγ isoform 1 [25] = biological target: T13, human SIRPγ isoform 1; test: SPR, captured scFv-Fc
Summary of the method: as §1

[26] = biological target: T14, high affinity SIRP-α D1 variant CV1-3; test: SPR, captured scFv-Fc
Summary of the method: as §1

[27] = biological target: T18, NOD mouse SIRP-α D1 domain; test: SPR, captured scFv-Fc
Summary of the method: as §1

[28] = biological target: T19, C57BL/6 mouse SIRP-α D1 domain; test: SPR, captured scFv-Fc
Summary of the method: as §1

T13 sequence (Q9P1W8 29-147 limits assumed): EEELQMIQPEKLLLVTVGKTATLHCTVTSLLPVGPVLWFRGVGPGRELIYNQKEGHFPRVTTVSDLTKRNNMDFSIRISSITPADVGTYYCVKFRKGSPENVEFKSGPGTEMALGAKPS
T11 sequence (O00241 30-148 limits assumed): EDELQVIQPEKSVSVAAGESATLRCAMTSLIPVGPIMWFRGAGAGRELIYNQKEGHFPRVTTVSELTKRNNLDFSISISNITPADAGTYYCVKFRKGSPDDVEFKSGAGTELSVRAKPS

B1: S123 (scFv)
scFv: EIVLTQSPGTLSVSPGERVTLTCRASQGIAGKIAWYQQKPGQAPRLLIYDASSRATGIPGRFSGSGSGTEFTLTITSLQSEDFAVYYCQQHYDWSPLTFGGGTKVEIKGQSSRSSGGGGSSGGGGSDVQLVESGGGLVQPGGSLRLSCTASGFTFRNYGMSWVRQAPGEGLEWVSASSGSGSTYYTDSVKGRFTISRDNSKNTLYLQMNSLRAEDTAIYYCAKVTWNNFFDYWGLGTLVTVSSSL[letters of human IgG1 Fc with C220S (EU numbers) and a few adjoining residues left out]
B1: no binding (tested: Koff > 5 × 10^3 (legend)) [1]; no binding (tested: Koff > 5 × 10^3 (legend)) [2]; no binding (tested: Koff > 5 × 10^3 (legend)) [3]. The binding result [4] was “no binding (tested: Koff > 5 × 10^3 (legend))”, the koff [5] was 0.00131 s⁻¹ and the koff (human SIRPγ isoform 1 [6]) was 0.00143 s⁻¹. For the same binder, the koff [7] was 0.00155 s⁻¹, the koff [8] was 0.00157 s⁻¹ and the koff [9] was 0.00154 s⁻¹.

B2: S1 scFv-Fc (scFv)
scFv: ALTQPASVSANPGETVEITCSGGGSNNAYGWFQQKSPGSAPLTVIYDNGKRPSDIPSRFSGSKSDSTGTLTITRVQAEDEAVYYCGSADNSGAGVFGAGTTLTVLGQSSRSSGGGGSSGGGGSMAAVTLDESGGGLQTPGGALSLVCKGSGFTFSSHAMNWVRQAPGKGLEWVAGISSDGRFTYYGAAVQGRATISRDNGQSTVRLQLNNLRAEDTATYYCTKNGGCGSGGDLDCIDAWGHGTEVIVSSSL[letters of human IgG1 Fc with C220S (EU numbers) and a few adjoining residues left out]
For B2, the binding result [10] was “no binding (tested: 100 nM)”, the binding result (human SIRPβ isoform 1 [11]) was “no binding (tested: 100 nM)” and the koff [12] was 0.00233 s⁻¹. The koff (human SIRPγ isoform 1 [13]) was 0.00219 s⁻¹, the koff [14] was 0.00219 s⁻¹ and the koff [15] was 0.0348 s⁻¹. For the same binder, the koff [16] was 0.00406 s⁻¹, the koff [17] was 0.00212 s⁻¹ and the koff [18] was 0.00789 s⁻¹. The koff [19] was 0.0017 s⁻¹.

B3: S11 scFv-Fc (scFv)
scFv: AVTQPASVSANPGETVKITCSGSSSGSYGWYQQKSPGSAPVTLIYETNKRPSNIPSRFSGSKSGSTATLTITGVQADDEAVYYCGSEDSSTYLSIFGAGTTLTVLGQSSRSSGGGGSSGGGGSMAAVTLDESGGGLQTPGGALSLVCKASGFTFSSFNMGWVRQAPGKGLEFVAAIYSGNSAEYGAAVQGRATISRDNGQSTVRLQLNNLRAEDTGIYFCAKDAGSGCYSGVCAGTSSIDAWGHGTEVIVSSSL[letters of human IgG1 Fc with C220S K317E (EU numbers) and a few adjoining residues left out]
B3 was tested, and the binding result [20] was “no binding (tested: 100 nM)”, the koff [12] was 3.35e-05 s⁻¹ and the koff (human SIRPγ isoform 1 [13]) was 0.000386 s⁻¹. It also gave a koff [14] of 0.00269 s⁻¹, a koff [21] of 0.000186 s⁻¹ and a koff [15] of 0.00111 s⁻¹. For the same binder, the koff [16] was 0.00392 s⁻¹, the koff (human SIRPβ isoform 1 [22]) was 0.000159 s⁻¹ and the binding result [23] was “binds”. B3: binds [24].

B4: S128 scFv-Fc (scFv)
scFv: ETVLTQSPATLSVSPGERATLSCRASQTVGSKLAWHQQKPGQAPRLLIYDASNRATGIPDRFSGSGSGTDFTLTISSLQTEDSAVYYCQQYYYWPPYRFGGGTKVEIKGQSSRSSGGGGSSGGGGSDVQLVESGGGVVRPGESLRLSCAASGFSFRSYAMNWVRQAPGEGLEWVSRIDSGGGGTDYADSVKGRFTISRDNSKNTLYLQMNSLRAEDTAVYYCAKQYDWNSFFDYWGLGAPVTVSSSL[letters of human IgG1 Fc with C220S (EU numbers) and a few adjoining residues left out]
notes: scFv-Fc, whole chain in the entry; Human framework
B4: no binding (tested: 100 nM) (human SIRPγ isoform 1 [25]); no binding (tested: 100 nM) [26]; no binding (tested: 100 nM) [20]. For the same binder, the binding result [27] was “no binding (tested: 100 nM)”, the binding result [28] was “no binding (tested: 100 nM)” and the koff [12] was 0.00459 s⁻¹. For the same binder, the koff [21] was 0.00211 s⁻¹, the koff [15] was 0.0152 s⁻¹ and the koff [16] was 0.0147 s⁻¹. For the same binder, the koff (human SIRPβ isoform 1 [22]) was 0.00421 s⁻¹.
